Results as given in the supplement of paper PMC12217912.
Some of the results follow. The full chains were built here from the parent and the listed change. Values near 0.05 are background.

B1: TEV protease; numbered along this chain (parent)
chain: MGESLFKGPRDYNPISSSICHLTNESDGHTTSLYGIGFGPFIITNKHLFRRNNGTLVVQSLHGVFKVKDTTTLQQHLVDGRDMIIIRMPKDFPPFPQKLKFREPQREERICLVTTNFQTKSMSSMVSDTSCTFPSGDGIFWKHWIQTKDGQCGSPLVSTRDGFIVGIHSASNFTNTNNYFTSVPKNFMELLTNQEAQQWVSGWRLNADSVLWGGHKVFMVKPEEPFQPVKEATQL

Variants of: B1
Test: raw area under fraction-flipped curve 0-4 h after induction (AUC4h, not background-subtracted), DNA-recorder readout of cleavage of the substrate (dimensionless); higher = more cleavage of the substrate by the protease variant
Conditions: temperature: 34 °C; time window: 0-4 h after rhamnose induction
Description: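 In vivo DNA recorder in E. coli TOP10(DE3) ΔrhaA at 34 °C. Each TEVp single-site mutant (parent TEVp 0) is paired with a single-site variant of the 7-mer TEVs (canonical ENLYFQ|S). The substrate sits between flexible linkers in a Bxb1-sfGFP-TEVs-SsrA fusion, so cleavage stabilises Bxb1 and speeds flipping of a recombination array, read by NGS. The value is the raw area under the fraction-flipped curve over 0-4 h after rhamnose induction (AUC4h), with ≥20 reads per time point. It is not background-subtracted; inactive controls average about 0.047.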
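Also: Bxb1 expression induced with 0.2% (w/v) L-rhamnose at OD600 near 0.5, cultures sampled hourly, flipped fraction per protease–substrate barcode pair counted by paired-end Illumina sequencing.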

Row | Variant | area with substrate EALYFQS | area with substrate ECLYFQS | area with substrate EELYFQS | area with substrate EGLYFQS | area with substrate EILYFQS | area with substrate EKLYFQS | area with substrate EMLYFQS | area with substrate EPLYFQS | area with substrate EQLYFQS | area with substrate ERLYFQS | area with substrate ESLYFQS | area with substrate EVLYFQS | area with substrate EDLYFQS | area with substrate EHLYFQS | area with substrate ELLYFQS | area with substrate EWLYFQS | area with substrate EYLYFQS | area with substrate EFLYFQS | area with substrate ETLYFQS
1 | E224A | 0.109 | 0.0783 | 0.122 | 0.116 | 0.0737 | 0.0979 | 0.0838 | 0.0782 | 0.144 | 0.0829 | 0.0935 | 0.0805 |  |  |  |  |  |  | 
2 | E224K | 0.113 | 0.0782 |  | 0.0774 | 0.0869 | 0.0965 | 0.123 |  | 0.117 |  | 0.0884 | 0.0908 | 0.115 | 0.104 | 0.0692 | 0.0983 | 0.0788 |  | 
3 | K221R | 0.114 | 0.0978 | 0.119 | 0.112 | 0.0854 | 0.12 | 0.113 |  | 0.135 | 0.0989 | 0.0997 | 0.0878 | 0.114 | 0.0982 | 0.0885 | 0.0988 | 0.0979 | 0.0904 | 
4 | P40K | 0.084 |  |  | 0.126 | 0.129 | 0.109 | 0.117 | 0.115 | 0.136 | 0.106 | 0.103 | 0.088 | 0.125 |  | 0.116 | 0.119 | 0.102 | 0.114 | 
5 | S32R | 0.133 | 0.0988 | 0.117 |  | 0.0997 | 0.104 | 0.115 | 0.123 | 0.111 | 0.108 | 0.091 | 0.118 | 0.132 | 0.0806 | 0.104 |  | 0.069 |  | 0.127
6 | G136H | 0.112 | 0.0899 |  | 0.103 | 0.103 | 0.104 |  | 0.147 | 0.124 | 0.125 | 0.106 | 0.111 | 0.136 |  |  | 0.0971 |  | 0.117 | 
7 | G136Q | 0.116 | 0.0829 | 0.141 | 0.0966 | 0.0945 | 0.112 | 0.116 | 0.141 | 0.115 | 0.113 | 0.103 | 0.083 | 0.111 | 0.127 | 0.104 | 0.109 | 0.0961 | 0.1 | 0.0931
8 | V200H | 0.0733 | 0.0601 | 0.103 |  | 0.0747 | 0.0703 |  | 0.0932 | 0.0826 | 0.0693 | 0.073 | 0.0711 | 0.0846 | 0.0724 | 0.0669 |  | 0.0649 | 0.0866 | 
9 | L112I | 0.0861 |  | 0.0942 | 0.122 | 0.0726 |  | 0.107 | 0.0858 | 0.0829 | 0.136 | 0.107 | 0.0875 | 0.141 | 0.164 |  |  |  | 0.0457 | 0.117
10 | L112Y | 0.0801 | 0.0706 | 0.0779 |  | 0.0663 | 0.0743 | 0.064 | 0.0762 | 0.0774 | 0.0847 | 0.0752 | 0.0557 |  | 0.0738 | 0.0728 |  | 0.0831 |  | 
11 | K120P | 0.13 | 0.112 | 0.112 | 0.0693 |  | 0.119 |  | 0.176 |  | 0.0979 | 0.0891 | 0.0853 |  |  | 0.098 | 0.0839 |  |  | 0.0995
12 | W144C | 0.0896 | 0.115 | 0.113 | 0.0788 | 0.0813 | 0.0922 | 0.0782 | 0.133 | 0.0986 | 0.0934 | 0.117 | 0.0832 |  |  | 0.0741 | 0.0882 | 0.0933 | 0.0845 | 0.0811
